# Measured values from PubChem BioAssay AID1460 (National Center for Advancing Translational Sciences (NCATS), 2008).
# Out of some 270,000 compounds screened, about 5,800 (2.1%) were called active. Inconclusive results, whose numbers are uncertain, are shown with a selection of clear calls. Calls come from the whole dose curve; as a rule, active = well fitted inhibition curve with a large enough effect; inconclusive = small, poorly fitted or top-dose-only effect; inactive = flat fitted curve, though single readings scatter. Where the call is inconclusive, the potency comes from a doubtful curve fit.
# Target: Microtubule-associated protein tau (Homo sapiens) (UniProt P10636)
# UniProt P10636, sequence (P10636 whole entry, looked up): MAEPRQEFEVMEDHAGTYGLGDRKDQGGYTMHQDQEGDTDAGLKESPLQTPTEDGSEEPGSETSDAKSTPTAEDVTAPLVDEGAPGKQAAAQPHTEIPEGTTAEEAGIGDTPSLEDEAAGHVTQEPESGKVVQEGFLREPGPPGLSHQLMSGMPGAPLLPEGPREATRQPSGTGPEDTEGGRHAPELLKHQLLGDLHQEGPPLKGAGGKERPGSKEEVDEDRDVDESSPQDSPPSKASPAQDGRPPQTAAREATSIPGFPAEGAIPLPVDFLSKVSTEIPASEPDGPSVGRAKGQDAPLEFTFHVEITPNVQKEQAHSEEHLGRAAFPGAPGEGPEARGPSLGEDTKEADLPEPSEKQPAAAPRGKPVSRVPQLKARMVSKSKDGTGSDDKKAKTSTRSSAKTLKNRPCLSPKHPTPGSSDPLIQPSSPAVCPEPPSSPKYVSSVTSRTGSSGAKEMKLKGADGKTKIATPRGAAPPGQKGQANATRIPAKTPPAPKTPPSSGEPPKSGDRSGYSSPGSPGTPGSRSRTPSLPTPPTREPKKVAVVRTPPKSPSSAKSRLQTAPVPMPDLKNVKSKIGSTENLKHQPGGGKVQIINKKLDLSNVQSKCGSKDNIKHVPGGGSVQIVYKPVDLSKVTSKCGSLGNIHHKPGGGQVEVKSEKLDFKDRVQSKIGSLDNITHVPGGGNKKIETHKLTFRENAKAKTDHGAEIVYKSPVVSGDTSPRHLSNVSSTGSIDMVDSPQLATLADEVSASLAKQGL
# Test: qHTS for Inhibitors of Tau Fibril Formation, Thioflavin T Binding; note: nearly all actives have a fitted effect of over 55% in size
# Conditions: recombinant tau K18 P301L, heparin-induced fibrillization, ThT fluorescence; series mostly up to 57.4 µM
# How it was run: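 Using a mix of unlabeled (15 uM) and Alexa 594-labeled (0.24 uM) tau K18 P301L, heparin-triggered fibrillization over 6 hr at 37 C was scored by ThT fluorescence.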
# Potency is the fitted concentration of half-maximal effect; tags give direction and shape of the fitted curve.
row,Structure (SMILES),Potency
1,COc1ccc2[nH]c(C)c(CCN(Cc3cccs3)C(=S)Nc3ccc(F)cc3)c2c1,"inconclusive: 14.1 µM [inhibitor, partial curve]"
2,CC1=NN(c2ccccc2)C(=O)/C1=C\c1cn(C)c2ccccc12,active: 7.08 µM
3,COc1ccc(Cl)cc1NC(=O)Cn1c(=O)n(Cc2nc(C)no2)c(=O)c2ccccc21,"inconclusive: 8.91 µM [activator, partial curve]"
4,CCc1ccc(NC(=O)c2ccc3c(=O)n4nc(Nc5ccccc5C)sc4nc3c2)cc1,inactive
5,O=C(CCS(=O)(=O)c1ccccc1)N(Cc1cccnc1)c1nc2c(Cl)cccc2s1,"inconclusive: 3.16 µM [inhibitor, full curve, poor fit]"
6,CCOC(=O)c1c(C)oc2nc(C)nc(N(CC(C)C)CC(C)C)c12,inactive
7,CC(=O)Nc1nnc(SCC(=O)Nc2ccc(N3CCOCC3)c(Cl)c2)s1,"inconclusive: 7.94 µM [inhibitor, partial curve]"
8,CCC(C(=O)OC)n1cnc2c(nnn2-c2cccc(Cl)c2)c1=O (stereo not drawn),inactive
9,O=C1C(Cl)=C(NS(=O)(=O)c2ccc([N+](=O)[O-])cc2)C(=O)c2ccccc21,active: 2 µM
10,CCn1nccc1C(=O)Nc1cc(Cl)cc(Cl)c1,"inconclusive: 25.1 µM [inhibitor, partial curve, poor fit]"
11,CCNC(=S)N(CCc1c(C)[nH]c2ccc(C)cc12)Cc1cc(OC)c(OC)c(OC)c1,"inconclusive: 17.8 µM [inhibitor, partial curve]"
12,O=C(c1c(Cl)cccc1Cl)N1CCN(c2cccc3[nH]ccc23)CC1,"inconclusive: 20 µM [inhibitor, partial curve]"
13,CCOc1ccc(NC(=S)/C(=C(\[O-])c2ccc(C)c([N+](=O)[O-])c2)[n+]2ccccc2)cc1,active: 25.1 µM
14,Cc1ccc(CCN=c2c([N+](=O)[O-])nn(-c3ccccc3)n2O)cc1,"inconclusive: 15.8 µM [inhibitor, partial curve]"
15,N[C@H](CCC(=O)N[C@H](CSN=O)C(=O)NCC(=O)O)C(=O)O,active: 22.4 µM
16,CC(=O)c1c(C)[nH]c(-c2ccccc2)nc1=S,"inconclusive: 39.8 µM [inhibitor, single point]"
17,CC(=O)NC1C(=O)N=C(SCC(=O)Nc2ccc(C(F)(F)F)cc2Cl)NC1=O (stereo not drawn),"inconclusive: 44.7 µM [inhibitor, single point]"
18,CCc1cc2c(=O)[nH]c(-c3ccccn3)nc2s1,"inconclusive: 39.8 µM [inhibitor, single point]"
19,Cc1cc(C(=O)N/N=C/c2ccc(-c3ccc(C)c(Cl)c3)o2)n[nH]1,"inconclusive: 1.26 µM [inhibitor, full curve]"
20,COc1ccc(C(=O)N/N=C/c2ccc(OC(=O)c3cccc4ccccc34)c([N+](=O)[O-])c2)cc1,active: 5.01 µM
21,O=C(c1ccccc1)c1ccc(N2CCOCC2)c(NC(=O)c2ccco2)c1,inactive
22,COc1cc(/C=C2\SC(=Nc3ccccc3)N(CCc3c[nH]c4ccccc34)C2=O)ccc1OC(C)C(=O)O (stereo not drawn),"inconclusive: 25.1 µM [inhibitor, single point]"

row,Structure (SMILES),Potency
1,Cc1cnc(NC(=O)CSc2nnc(-c3ccccc3)o2)s1,"inconclusive: 25.1 µM [inhibitor, single point]"
2,Cc1ccc(CNC(=O)c2ccc3c(=O)n(CC4CCCO4)c(=S)[nH]c3c2)cc1 (stereo not drawn),inactive
3,COc1cccc(CN2CCc3nc(Nc4ccc5c(c4)OCCO5)ncc3C2)c1OC,"inconclusive: 14.1 µM [inhibitor, partial curve, poor fit]"
4,O=C(Cn1sc2ccccc2c1=O)NC12CC3CC(CC(C3)C1)C2,active: 15.8 µM
5,Cc1ccc(-c2ccc(/C=C(\C#N)C(N)=S)n2C)cc1,active: 1 µM
6,Cc1cc(/C=N/O)c(C)n1-c1ccc(Br)cc1,"inconclusive: 14.1 µM [inhibitor, partial curve, poor fit]"
7,Cc1ccccc1-n1nc(-c2ccc(N)cc2)cc1N,"inconclusive: 10 µM [inhibitor, partial curve]"
8,COCCn1c(C)cc(C2=NNC(=Nc3ccccc3)SC2)c1C,"inconclusive: 14.1 µM [inhibitor, partial curve]"
9,COC(=O)c1c(NC(C)=O)sc2c1CCCCC2,"inconclusive: 35.5 µM [inhibitor, single point]"
10,Cc1ccc(N2CCN(/N=C/c3ccncc3)CC2)cc1,"inconclusive: 11.2 µM [inhibitor, partial curve]"
11,CCCCCNC(=O)c1cc2c(=O)n3ccccc3nc2n1C,"inconclusive: 12.6 µM [inhibitor, single point]"
12,O=[N+]([O-])c1ccc(/C=N/Nc2nc(NCc3ccccc3)nc(N3CCOCC3)n2)cc1,"inconclusive: 3.55 µM [inhibitor, full curve]"
13,CC1(C)OC2CC3C4CC(F)C5=CC(=O)CC[C@@]5(C)C4C(O)C[C@@]3(C)[C@]2(C(=O)CO)O1 (stereo partly drawn),inactive
14,CC(=O)N1CC=CC1(C)C(=O)NCC1CC1 (stereo not drawn),inactive
15,O=Cc1ccc(-c2cccc([N+](=O)[O-])c2)o1,"inconclusive: 12.6 µM [inhibitor, partial curve, poor fit]"
16,COc1cc(C(=O)Nc2cc(-c3cn4cccnc4n3)ccc2C)cc(OC)c1OC,inactive
17,Oc1ccc(/C=C/c2nc(-c3ccccc3O)n(-c3ccccc3)n2)c(O)c1,"inconclusive: 28.2 µM [inhibitor, partial curve]"
18,O=C(/C=C/c1ccc(Cl)c(Cl)c1)NCc1ccco1,inactive
19,CCC(C)Nc1nc(Cl)nc(N(C#N)CN2C(=O)c3ccccc3S2(=O)=O)n1 (stereo not drawn),"inconclusive: 28.2 µM [inhibitor, partial curve]"
20,NNC(=S)Nc1cc(S(=O)(=O)N2CCOCC2)ccc1N1CCOCC1,"inconclusive: 14.1 µM [inhibitor, partial curve, poor fit]"
21,CCc1cccc(CC)c1NC(=S)/C(=C(\[O-])c1ccc(Cl)s1)[n+]1ccccc1,"inconclusive: 31.6 µM [inhibitor, single point]"
